{"source": "the BET-seq Pho4 binding data (Le et al. 2018)", "note": "This is one part of the list. The energies were worked out here from pooled read counts, against the library average; single values are noisy.", "data": [{"target": "T1, Pho4 (S. cerevisiae) (UniProt P07270)", "T1 sequence": "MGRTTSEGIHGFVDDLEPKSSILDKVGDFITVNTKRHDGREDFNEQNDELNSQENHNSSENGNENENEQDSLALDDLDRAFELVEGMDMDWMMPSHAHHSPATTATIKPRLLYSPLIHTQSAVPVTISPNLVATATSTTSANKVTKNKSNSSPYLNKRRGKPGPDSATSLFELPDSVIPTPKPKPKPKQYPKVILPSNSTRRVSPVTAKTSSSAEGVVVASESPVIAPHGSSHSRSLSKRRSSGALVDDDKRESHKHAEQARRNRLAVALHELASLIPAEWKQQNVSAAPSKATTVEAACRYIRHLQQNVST", "experiment": "relative binding free energy (BET-seq); higher = weaker binding", "details": "reference: library average", "units": {"relative binding free energy": "kcal/mol"}, "values": [{"sequence": "TATTGCACGTGGTAGG", "relative binding free energy": -0.01}, {"sequence": "TTATGCACGTGAAGCT", "relative binding free energy": 0.21}, {"sequence": "ACGGTCACGTGGGAAG", "relative binding free energy": 0.08}, {"sequence": "TTTTACACGTGTGTGG", "relative binding free energy": 0.24}, {"sequence": "GTGAGCACGTGTTAGC", "relative binding free energy": 0.06}, {"sequence": "TATCGCACGTGGAATT", "relative binding free energy": 0.14}, {"sequence": "ATGGTCACGTGAGAGA", "relative binding free energy": 0.3}, {"sequence": "TTTTACACGTGGTAAG", "relative binding free energy": 0.18}, {"sequence": "CGTTCCACGTGGGAGG", "relative binding free energy": 0.03}, {"sequence": "AATGGCACGTGGGGCC", "relative binding free energy": -0.2}, {"sequence": "CAGTACACGTGATGGT", "relative binding free energy": 0.04}, {"sequence": "TAGGACACGTGTTATT", "relative binding free energy": -0.02}, {"sequence": "GTACTCACGTGAGTGT", "relative binding free energy": 0.32}, {"sequence": "TGAGCCACGTGGGCGG", "relative binding free energy": -0.23}, {"sequence": "ACGTTCACGTGAGTGG", "relative binding free energy": 0.32}, {"sequence": "TGATTCACGTGAAGTT", "relative binding free energy": 0.36}, {"sequence": "TGGGGCACGTGACGGG", "relative binding free energy": 0.06}, {"sequence": "GGTGGCACGTGTAGTA", "relative binding free energy": -0.03}, {"sequence": "AGGGTCACGTGTATTG", "relative binding free energy": 0.01}, {"sequence": "TTGGTCACGTGCAGTG", "relative binding free energy": 0.08}, {"sequence": "TTAACCACGTGGAGGG", "relative binding free energy": -0.06}, {"sequence": "GGCATCACGTGGCGTG", "relative binding free energy": 0.02}, {"sequence": "ATGGACACGTGAGATG", "relative binding free energy": 0.27}, {"sequence": "GGGTGCACGTGGCATA", "relative binding free energy": -0.14}, {"sequence": "AATGGCACGTGGTGCT", "relative binding free energy": -0.2}, {"sequence": "AATAACACGTGGAGTT", "relative binding free energy": 0.05}, {"sequence": "GATCGCACGTGGGTGG", "relative binding free energy": -0.17}, {"sequence": "GTAATCACGTGTTTGG", "relative binding free energy": 0.19}, {"sequence": "TCGAGCACGTGTTTGG", "relative binding free energy": -0.11}, {"sequence": "AAGGGCACGTGAGTGT", "relative binding free energy": 0.08}, {"sequence": "TGGGGCACGTGTAACG", "relative binding free energy": 0.07}, {"sequence": "ATGTTCACGTGCTAGT", "relative binding free energy": 0.16}, {"sequence": "TGGGACACGTGTGAAG", "relative binding free energy": 0.19}, {"sequence": "GCTAGCACGTGAGTGG", "relative binding free energy": 0}, {"sequence": "TTCGGCACGTGTAGGG", "relative binding free energy": -0.02}, {"sequence": "TGGATCACGTGCTGGA", "relative binding free energy": 0.17}, {"sequence": "ATTTCCACGTGTATTG", "relative binding free energy": 0.09}, {"sequence": "CTGGACACGTGGTAGG", "relative binding free energy": 0.11}, {"sequence": "ATGGGCACGTGAGTCG", "relative binding free energy": 0.16}, {"sequence": "AGTACCACGTGTAGGT", "relative binding free energy": -0.2}, {"sequence": "TGTGACACGTGGGGCC", "relative binding free energy": -0.27}, {"sequence": "TTGGTCACGTGTAGGC", "relative binding free energy": 0.15}, {"sequence": "CGGAGCACGTGAATTG", "relative binding free energy": 0.22}, {"sequence": "TGGTTCACGTGGTGCG", "relative binding free energy": 0.13}, {"sequence": "TCGTGCACGTGAGTTG", "relative binding free energy": 0.26}, {"sequence": "GAGGGCACGTGGTTTA", "relative binding free energy": -0.07}, {"sequence": "GTTGACACGTGATGGG", "relative binding free energy": 0.1}, {"sequence": "TGAGGCACGTGACAGG", "relative binding free energy": 0.03}, {"sequence": "TTTTTCACGTGGTGGT", "relative binding free energy": 0.27}, {"sequence": "CAGTTCACGTGTGGTT", "relative binding free energy": 0.25}, {"sequence": "TGTTCCACGTGTTATA", "relative binding free energy": 0.02}, {"sequence": "GGGGGCACGTGTCAGC", "relative binding free energy": -0.08}, {"sequence": "GCGTTCACGTGTGGTT", "relative binding free energy": 0.28}, {"sequence": "GCATGCACGTGGAGTG", "relative binding free energy": -0.05}, {"sequence": "CGGTGCACGTGTATAT", "relative binding free energy": -0.09}, {"sequence": "TTGGTCACGTGGTGGG", "relative binding free energy": 0.12}, {"sequence": "TTAAGCACGTGTGATC", "relative binding free energy": 0.12}, {"sequence": "TAGTGCACGTGGGTGG", "relative binding free energy": -0.11}, {"sequence": "CATGGCACGTGGTTCT", "relative binding free energy": -0.11}, {"sequence": "GTCTTCACGTGGGCGG", "relative binding free energy": 0.22}, {"sequence": "AGTATCACGTGTGAAT", "relative binding free energy": 0.24}, {"sequence": "GTTTGCACGTGCCATG", "relative binding free energy": -0.04}, {"sequence": "AAGTTCACGTGCGGGT", "relative binding free energy": 0.32}, {"sequence": "GGTTACACGTGTGGTC", "relative binding free energy": 0.31}, {"sequence": "TTTAACACGTGTTGGA", "relative binding free energy": 0.03}, {"sequence": "TTTGTCACGTGTACGA", "relative binding free energy": -0.02}, {"sequence": "AGTGTCACGTGTAACT", "relative binding free energy": 0.05}, {"sequence": "GGCGGCACGTGTAAGT", "relative binding free energy": 0.11}, {"sequence": "GTGAGCACGTGGGCTG", "relative binding free energy": -0.25}, {"sequence": "TCTTGCACGTGGGCAG", "relative binding free energy": -0.12}, {"sequence": "TGTTGCACGTGGTCAA", "relative binding free energy": -0.03}, {"sequence": "GTGGTCACGTGTGGGT", "relative binding free energy": 0.17}, {"sequence": "GTGGTCACGTGGAGTT", "relative binding free energy": 0.12}, {"sequence": "CAGTTCACGTGGCTTG", "relative binding free energy": 0.31}, {"sequence": "CGTTTCACGTGGGGAG", "relative binding free energy": 0.15}, {"sequence": "GCGGACACGTGATGTG", "relative binding free energy": 0.28}, {"sequence": "GTGGACACGTGTGGGA", "relative binding free energy": 0.1}, {"sequence": "CGGGGCACGTGGATTT", "relative binding free energy": -0.05}, {"sequence": "TTCTGCACGTGTTTTC", "relative binding free energy": -0.01}, {"sequence": "CTAATCACGTGGTATG", "relative binding free energy": -0.01}, {"sequence": "CGTGGCACGTGATCTG", "relative binding free energy": 0}, {"sequence": "TGTCGCACGTGCTTGT", "relative binding free energy": -0.2}, {"sequence": "TTGTCCACGTGGGTCG", "relative binding free energy": -0.03}, {"sequence": "TTTGGCACGTGAAATA", "relative binding free energy": 0.3}, {"sequence": "CTGGCCACGTGTGTGG", "relative binding free energy": -0.08}, {"sequence": "GCGTGCACGTGGGTAT", "relative binding free energy": 0.04}, {"sequence": "CTTTGCACGTGGGTTT", "relative binding free energy": -0.07}, {"sequence": "GGTATCACGTGTGGAG", "relative binding free energy": 0.14}, {"sequence": "GGCGACACGTGCGGGT", "relative binding free energy": 0.05}, {"sequence": "GATGGCACGTGTGTGA", "relative binding free energy": 0}, {"sequence": "TTGAACACGTGTCTGG", "relative binding free energy": 0.04}, {"sequence": "TCTCTCACGTGGTTGT", "relative binding free energy": 0.29}, {"sequence": "GGAGTCACGTGATGTT", "relative binding free energy": 0.24}, {"sequence": "AGCGTCACGTGGATGG", "relative binding free energy": -0.01}, {"sequence": "AGGGTCACGTGTACAT", "relative binding free energy": -0.01}, {"sequence": "ATGGTCACGTGCAGAT", "relative binding free energy": 0.09}, {"sequence": "CGTGTCACGTGGTTAA", "relative binding free energy": -0.08}, {"sequence": "AGTTACACGTGGATAA", "relative binding free energy": 0.2}, {"sequence": "GTGAGCACGTGGGGGC", "relative binding free energy": -0.17}, {"sequence": "TAGAGCACGTGCGGGT", "relative binding free energy": -0.15}, {"sequence": "AGTGACACGTGATTTT", "relative binding free energy": 0.15}, {"sequence": "CGAGGCACGTGGGGGA", "relative binding free energy": -0.29}, {"sequence": "ATTTGCACGTGGGCAG", "relative binding free energy": 0.02}, {"sequence": "ATGAGCACGTGGGAAT", "relative binding free energy": -0.05}, {"sequence": "GGGAACACGTGGCGGT", "relative binding free energy": 0.05}, {"sequence": "GTTTCCACGTGGTCGT", "relative binding free energy": 0.04}, {"sequence": "TTTTTCACGTGATGGG", "relative binding free energy": 0.41}, {"sequence": "AAGATCACGTGGGGAA", "relative binding free energy": 0.02}, {"sequence": "TGGGACACGTGCAGTG", "relative binding free energy": -0.07}, {"sequence": "TGTGTCACGTGTTGGT", "relative binding free energy": 0.06}, {"sequence": "TGGGGCACGTGGGCTG", "relative binding free energy": -0.18}, {"sequence": "ATTTTCACGTGTACAT", "relative binding free energy": 0.06}, {"sequence": "TTTTGCACGTGGTCCG", "relative binding free energy": -0.19}, {"sequence": "CTTGGCACGTGGTTGG", "relative binding free energy": -0.13}, {"sequence": "TGAAGCACGTGGATAT", "relative binding free energy": -0.07}]}]}
